Laboratory results taken from paper PMC4336329 (PLoS ONE, 2015).
Hit rate of the full screen: of about 310,000 compounds, about 2,200 (0.71%) showed an effect of 50% or more. Effects have a minus sign here. The list shows a part of the results.

The compounds below were run against human ether-à-go-go-related gene (hERG) potassium channel (human, UniProt Q12809) (assay: primary screen, population patch clamp on CHO cells stably expressing hERG).
human ether-à-go-go-related gene (hERG) potassium channel, sequence (Q12809 whole entry, looked up): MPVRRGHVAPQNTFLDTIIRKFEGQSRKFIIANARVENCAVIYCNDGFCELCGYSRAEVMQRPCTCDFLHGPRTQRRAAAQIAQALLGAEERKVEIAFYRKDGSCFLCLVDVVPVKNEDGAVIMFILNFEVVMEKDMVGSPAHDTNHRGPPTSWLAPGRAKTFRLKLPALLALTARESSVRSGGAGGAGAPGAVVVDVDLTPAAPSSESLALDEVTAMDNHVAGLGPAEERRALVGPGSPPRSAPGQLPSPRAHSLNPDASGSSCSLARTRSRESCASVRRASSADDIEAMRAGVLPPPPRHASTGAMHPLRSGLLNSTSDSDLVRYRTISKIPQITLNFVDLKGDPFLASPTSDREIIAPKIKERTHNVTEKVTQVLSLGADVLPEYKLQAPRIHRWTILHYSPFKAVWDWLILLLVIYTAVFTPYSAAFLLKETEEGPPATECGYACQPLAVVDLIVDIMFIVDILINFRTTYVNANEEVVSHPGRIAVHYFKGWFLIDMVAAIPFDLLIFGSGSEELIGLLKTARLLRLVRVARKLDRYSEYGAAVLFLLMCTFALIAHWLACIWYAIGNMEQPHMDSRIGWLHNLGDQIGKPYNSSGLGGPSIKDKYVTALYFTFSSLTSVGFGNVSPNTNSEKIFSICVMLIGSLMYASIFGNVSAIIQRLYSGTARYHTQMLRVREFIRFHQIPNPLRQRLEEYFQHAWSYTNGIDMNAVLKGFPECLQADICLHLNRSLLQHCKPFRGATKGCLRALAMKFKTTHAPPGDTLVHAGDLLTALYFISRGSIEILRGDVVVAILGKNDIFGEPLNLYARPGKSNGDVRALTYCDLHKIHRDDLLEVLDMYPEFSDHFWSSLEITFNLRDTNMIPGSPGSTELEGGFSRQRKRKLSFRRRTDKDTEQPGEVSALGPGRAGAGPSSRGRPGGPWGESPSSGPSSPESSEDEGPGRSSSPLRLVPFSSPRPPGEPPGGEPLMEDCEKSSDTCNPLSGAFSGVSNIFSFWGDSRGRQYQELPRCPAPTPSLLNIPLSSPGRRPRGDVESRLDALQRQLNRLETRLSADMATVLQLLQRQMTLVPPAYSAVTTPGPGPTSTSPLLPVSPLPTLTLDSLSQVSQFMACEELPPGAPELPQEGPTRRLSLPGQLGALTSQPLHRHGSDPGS

Compound | hERG current change (%, negative = inhibition) at 1uM [%]
CC(=O)Nc1ccccc1NC(=O)C/C(C)=N/NC(=O)C(=O)Nc1cccc(Cl)c1C | 5.98
COc1c(/C=N/NC(=O)c2ccccc2O)c(CCN(C)C(C)=O)cc2c1OCO2 | 8.13
CCOC(=O)C1(CCOC)CCN(CC(C)Cc2ccc3c(c2)OCO3)CC1 (centres unmarked) | -12.4
COc1ccc(CCC(=O)NNC(=S)NCc2ccc(F)cc2)cc1 | 18.5
CC(C)COC(=O)N1CC(O)CC1C(=O)O (centres unmarked) | 15.9
N#Cc1cnn2ccn(C3OC(CO)C(O)C3O)c12 (centres unmarked) | 6.32
O=[N+]([O-])c1cccc(C=Nc2cc3c(cc2Br)OCCO3)c1 | 7.33
CCOC(=O)C1=C(c2ccccc2)NC(=O)NC1c1ccc(OCC#N)c(OC)c1 (centres unmarked) | 9.08
O=C(O)c1c(C(=O)N2N=C3/C(=C/c4ccccc4)CCCC3C2c2ccccc2)cccc1[N+](=O)[O-] (centres unmarked) | 5.2
COc1ccc(-c2cc(C(=O)Nc3cc(C)n(Cc4ccc(Cl)cc4)n3)no2)cc1OC | -4.88
CCOc1ccc(CN2CCNC(=O)C2CC(=O)N(C)CC2CCOCC2)cc1 (centres unmarked) | 12.7
Cc1ccc(C(=O)NC(=S)NNC(=O)CCN2CCOCC2)cc1 | 14.8
O=C(c1ccc(S(=O)(=O)N2CCOCC2)cc1)N1CCN(c2ccccn2)CC1 | 5.3
Cc1ccc(C(=O)NCC(=O)NC23CC4CC(CC(C4)C2)C3)cc1 | 10.9
COCCNC(=O)/C(C#N)=C/c1ccc(O)cc1 | 11.7
Cc1nn(C)c(NC(=O)c2ccc(Cl)cc2Cl)c1Br | 8.43
Cc1c(/C(O)=C2\C(=O)C(=O)N(CCN(C)C)C2c2ccco2)cnn1-c1ccccc1 (centres unmarked) | 7.1
CN1CCN(C(=O)c2cc([N+](=O)[O-])cc([N+](=O)[O-])c2)CC1 | 17
Cc1cccc(/C=N/NC(=O)Cc2ccc(Cl)cc2)c1O | 10.1
COc1ccc(-n2nc(C(=O)NCC(=O)NCc3ccco3)c3ccccc3c2=O)cc1 | -3
COc1ccc(NC(C)=O)cc1S(=O)(=O)N1CCN(C(=O)c2ccccc2F)CC1 | 6.87
Cc1nc(N(C)Cc2ccccc2)c2c(C)c(C)sc2n1 | 7.12
COc1ccc(-n2nc(C(=O)NCC(=O)NCCCN3CCC(C)CC3)c3ccccc3c2=O)cc1Cl | -28.3

Compound | hERG current change (%, negative = inhibition) at 1uM [%]
CCOC(=O)C(C)/C(C)=N/NC(N)=S (centres unmarked) | 10.3
Cc1ccc(S(=O)(=O)Nc2cc3c4c(c2)CC(=O)N4CCC3)cc1 | -6.25
COc1ccc(C(=O)COC(=O)c2ccc(-n3cnnn3)cc2)c(OC)c1 | 8.62
O=C(/C=C/c1ccccc1)N1CCN(c2ccccn2)CC1 | -3.17
O=C(NNC1=C(C(=O)C(F)(F)F)CCC1)c1ccc(Cl)cc1 | 9.2
CC(C)COC(=O)C(C#N)c1nc2ccccc2nc1N1CCN(Cc2ccc3c(c2)OCO3)CC1 (centres unmarked) | 5.29
O=C(c1ccccc1)c1ccc2c(c1)OCCCO2 | 9.42
Nc1nc(Cl)cc(NCCc2ccc(O)cc2)n1 | 16.1
CCOC(=O)c1c(CN2CCC(C)CC2)n(C)c2cc(Br)c(OC)cc12 | 15.3
CCOC(=O)C(NC(=O)c1ccccc1F)(Nc1cc(C)on1)C(F)(F)F (centres unmarked) | 15.2
NC(=S)Cc1ccc(Cl)cc1Cl | 11.2
COc1ccc(S(=O)(=O)N(C)CC(=O)NCCCn2ccnc2)cc1Cl | 2.85
COC(=O)c1cc2nc(-c3ccccc3)cc(C)n2n1 | 0.605
COC(=O)c1cc(S(=O)(=O)Nc2cccc(S(N)(=O)=O)c2)oc1C | 8.79
Cc1ccc(NC(=O)NN2CCOCC2)cc1 | 12.5
Cc1nnc(SCc2ccc(Cl)cc2Cl)[nH]c1=O | 4.16
O=C(Nc1ccc([N+](=O)[O-])cc1Cl)c1cc(Cl)ccc1O | 9.94
Cc1cc(Cl)ccc1OCCCC(N)=O | -0.586
O=C(Nc1cccc(S(=O)(=O)N2CCCC2)c1)c1ccc2c(c1)OCO2 | 8.01
CC1(OC(=O)CCc2ccccc2)C(=O)C=C2C=C(C3CC3)OC=C2C1=O (centres unmarked) | 3.31
Cc1cc(NC(=O)c2ccccc2)sc1C | 10.6
Cn1c(=O)c2[nH]c(CN3CCN(Cc4ccccc4)CC3)nc2n(C)c1=O | -2.76
O=C(C1=C[C@H](c2coc3ccccc3c2=O)C[C@H](OCCCCO)O1)N1CCN(Cc2ccccc2)CC1 | -16

Compound | hERG current change (%, negative = inhibition) at 1uM [%]
Cc1ccc(C(=O)NCCCn2ccnc2)cc1[N+](=O)[O-] | 11.9
CCOC(=O)C1(CCc2ccccc2)CCN(Cc2cccc3nccnc23)CC1 | -19.3
COc1ccccc1C(=O)COC(=O)c1nc2nc(C)cc(C)n2n1 | 10.8
Fc1cccc(Cl)c1CSC1=NCCS1 | 7.49
CC1(C)CC(=O)C(C=NCc2cccnc2)=C(O)C1 | -10.7
Nc1nc[nH]c(=O)c1N=Cc1ccccc1 | 24.7
COc1ccc(CCN(C)C(=O)C2CCCN(Cc3ccc(OC)c(OC)c3)C2)cc1OC (centres unmarked) | 17.4
CCC(C(=O)O)n1nnc(-c2ccc(-c3ccc(OC)cc3)cc2)n1 (centres unmarked) | 12.9
O=C(COC(=O)Cc1ccsc1)Nc1ccc(F)cc1Cl | 14
COc1ccccc1C(=O)NNC(=O)CCCN1C(=O)/C(=C/c2cccs2)SC1=S | 11.3
c1ccc(-c2cc(N3CCCCC3)ncn2)cc1 | 3.46
COc1ccc(CNS(=O)(=O)CCNC(=O)c2ccccc2)cc1 | 11
COc1ccc(C)cc1NC(=O)C(=O)N/N=C(\C)CC(=O)Nc1cccnc1 | 8.81
Cc1cc(C)cc(C(=O)N2CCCCCC2)c1 | 6.73
O=C(C1CCC(=O)N1Cc1ccccc1Cl)N1CCN(c2ccc(F)cc2)CC1 (centres unmarked) | -30.5
O=C(NC1C2CCCC1CN(C1CC1)C2)c1ccc(Cl)cc1 (centres unmarked) | 9.5
Cc1cc(C)c2sc(N(CCCN(C)C)C(=O)c3ccc(S(=O)(=O)N4CCc5ccccc5C4)cc3)nc2c1.Cl | 13
O=C(c1ccc(S(=O)(=O)Nc2ccccc2)cc1)N1CCCC1 | 12.5
Cc1ccc(CN2C(=O)CN=C(c3ccccc3)c3ccccc32)cc1 | 2.73
COc1ccc(NC(=O)Cc2c(SC)c3ccccc3n2Cc2ccccc2)cc1 | 6.02
O=C(O)c1ccc(N2CCN(Cc3ccc4c(c3)OCO4)CC2)c([N+](=O)[O-])c1 | 14.8
Cc1ccccc1NC(=O)NNC(=O)c1ccc2ccccc2c1O | 9.39
C/C(=N\NC(=O)C(=O)Nc1c(C)n(C)n(-c2ccccc2)c1=O)c1ccc(Cl)s1 | 5.11

Compound | hERG current change (%, negative = inhibition) at 1uM [%]
CC(C)C(NC(N)=O)C(=O)NC1CCCCC1 (centres unmarked) | 11
Cc1cc(C)c2cc(C#N)c(NCCOC(=O)c3ccccc3C)nc2c1 | -20.7
Cc1nn(-c2ccccc2)c2nc(N)c(C#N)c(-c3ccc(C(C)(C)C)cc3)c12 | 11
COc1ccccc1C(=O)Nc1nnc(CCc2ccccc2)s1 | 7.37
COc1cc(CN2CC(=O)N(c3ccc(C)c(C)c3)C2=S)cc(OC)c1OC | 8.19
CCOC(=O)C(C)Oc1ccc2c(C)cc(=O)oc2c1C(C)=O (centres unmarked) | -7.98
CCCCNc1cc(C)nc(NCc2ccccc2)n1 | -11.9
Cc1ccc(C(=O)/C=C/c2cn(CN3CCN(C)CC3)c3ccccc23)cc1 | 1.06
O=[N+]([O-])c1cccc(NC(=S)N2CCc3ccccc3C2)c1 | 11.1
Cc1cc(NC(=O)c2cc3n(n2)C(C(F)(F)F)CC(c2ccc(Cl)c(Cl)c2)N3)no1 (centres unmarked) | 3.54
Cc1c(Cl)c(C(=O)NC2C3CC4CC(C3)CC2C4)nn1C (centres unmarked) | 17.5
O=c1cccc2n1CC1CC2CN(S(=O)(=O)c2ccc(F)cc2)C1 (centres unmarked) | 10.6
O=C(CN1CCN(c2ccccn2)CC1)Nc1cc(F)ccc1F | 6.63
O=C1C=CC(=O)N1c1ccc(Sc2ccc([N+](=O)[O-])cc2)cc1 | 7.38
CCS(=O)(=O)NCc1ccc2c(c1)cc(C)n2C | 18.2
COc1cccc(C(=O)N2CCN(Cc3ccccc3[N+](=O)[O-])CC2)c1 | 3.04
COc1c(O)ccc(/C=C(\C#N)c2nc3ccccc3[nH]2)c1[N+](=O)[O-] | 7.04
COc1ccccc1N/C(=N/S(=O)(=O)c1ccc(C)cc1)c1ccccc1 | 9.64
COc1ccc(C(=O)OCC(=O)c2cc(C)n(CC3CCCO3)c2C)cc1[N+](=O)[O-] (centres unmarked) | -2.29
Cc1ccc(S(=O)(=O)Nc2cc(C(=O)NCCN(C)C)ccc2N2CCCCC2)cc1 | 0.705
